# Results are given in words; binding and its absence hold for the method and conditions named. In cells and extracts the contact can be indirect. Some binding calls cover weakened binding; strength is not graded here.
# The chains behind the UniProt entries cited, without tags or fusion partners. Residues count along the entry.
# UniProt P20333, residues 23-461: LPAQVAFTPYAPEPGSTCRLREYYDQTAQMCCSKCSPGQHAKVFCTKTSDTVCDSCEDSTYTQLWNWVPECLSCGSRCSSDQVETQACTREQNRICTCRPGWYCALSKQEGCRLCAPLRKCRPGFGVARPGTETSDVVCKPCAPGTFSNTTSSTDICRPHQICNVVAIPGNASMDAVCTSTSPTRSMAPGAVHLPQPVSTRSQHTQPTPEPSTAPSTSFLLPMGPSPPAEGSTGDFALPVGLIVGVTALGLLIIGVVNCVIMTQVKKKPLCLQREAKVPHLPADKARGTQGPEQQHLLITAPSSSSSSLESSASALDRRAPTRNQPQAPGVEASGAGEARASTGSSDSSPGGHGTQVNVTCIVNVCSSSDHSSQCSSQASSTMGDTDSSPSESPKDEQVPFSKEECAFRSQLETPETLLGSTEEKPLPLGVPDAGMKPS
# UniProt Q9NP84, residues 28-129: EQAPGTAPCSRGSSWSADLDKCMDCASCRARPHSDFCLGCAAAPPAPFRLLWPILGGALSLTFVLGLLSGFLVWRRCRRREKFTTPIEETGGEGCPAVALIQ
# What was measured:
# [1] = target: T1, TNFR-associated factor 2 (TRAF2) (human (endogenous in primary keratinocytes)) (UniProt Q12933); experiment: co-IP; lysates of TNFR2-overexpressing keratinocytes stimulated with TWEAK or control buffer; target IgG overnight at 4°C, protein G, Western blot; pairs with Fn14: TWEAK-stimulated cells
# T1 sequence: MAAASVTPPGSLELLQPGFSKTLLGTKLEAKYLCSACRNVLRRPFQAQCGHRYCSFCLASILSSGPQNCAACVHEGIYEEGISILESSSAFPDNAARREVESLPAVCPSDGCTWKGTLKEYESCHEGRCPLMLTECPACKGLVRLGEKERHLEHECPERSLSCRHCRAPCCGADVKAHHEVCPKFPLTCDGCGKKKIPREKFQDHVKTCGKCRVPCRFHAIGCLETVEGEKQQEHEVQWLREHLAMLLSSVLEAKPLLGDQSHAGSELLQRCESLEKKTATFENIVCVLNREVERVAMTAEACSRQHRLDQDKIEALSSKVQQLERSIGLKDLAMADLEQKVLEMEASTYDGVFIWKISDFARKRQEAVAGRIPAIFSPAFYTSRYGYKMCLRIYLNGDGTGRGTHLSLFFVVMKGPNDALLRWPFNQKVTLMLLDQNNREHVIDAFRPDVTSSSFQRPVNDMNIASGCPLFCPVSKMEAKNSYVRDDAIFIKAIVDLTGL
# [2] = target: T1, TNFR-associated factor 2 (TRAF2) (human (endogenous in primary keratinocytes)); experiment: condition: only nonstimulated cells (without TWEAK); co-IP; lysates of TNFR2-overexpressing keratinocytes, nonstimulated (control buffer); target IgG overnight at 4°C, protein G, Western blot
# [3] = target: T1, TNFR-associated factor 2 (TRAF2) (human (endogenous in primary keratinocytes)); experiment: condition: only nonstimulated cells (without TWEAK); co-IP; lysates (RIPA buffer) of normal human primary keratinocytes, nonstimulated (no TWEAK); target IgG overnight at 4°C, protein G, Western blot
# [4] = target: T1, TNFR-associated factor 2 (TRAF2) (human (endogenous in primary keratinocytes)); experiment: co-IP; lysates (RIPA buffer) of normal human primary keratinocytes, nonstimulated or TWEAK-stimulated (100 ng/ml); target IgG overnight at 4°C, protein G, Western blot; pairs with Fn14: TWEAK-stimulated cells
Substance,binding [1],binding [2],binding [3],binding [4]
"TNF receptor 2 (TNFR2), overexpressed in keratinocytes (from UniProt P20333 23-461)",binds,,,
fibroblast growth factor-inducible 14 (Fn14) (from UniProt Q9NP84 28-129) (receptor),binds,no binding,no binding,binds
